Inconclusive results and toxic doses are left out. Some entries of the source have several records that differ or are many. Only these are listed. There may be further records. Values that stand side by side do not match, cause unknown; some may be repeats, others may stem from another dose, organism or construct than stated.
Tested on: BDF1 mice, intracerebral B16 melanoma, median survival T/C
Assay: NCI In Vivo Anticancer Drug Screen. Data for tumor model B16 Melanoma (intracerebral) in B6D2F1 (BDF1) mice
Settings: endpoint: median survival time; dose: 8000.0 mg/kg/injection; schedule: Q01DX005 (ip); vehicle: saline; higher = longer survival
Protocol: The antitumor activity of compounds was measured in mice bearing transplantable tumors. Survival or tumor size were measured and the results are expressed as the measurement made in the treated group (T) divided by the measurement made in the vehicle treated control group (C). The tumor model used in this assay is B16 Melanoma (intracerebral) in B6D2F1 (BDF1) mice

With `CS(C)=O` the T/C was 100 % of control, 107 % of control, 487 % of control.

— PubChem BioAssay AID196 (DTP/NCI, 2004)
